The record followed here is the antibiotic and cytotoxicity screens of Wong et al. (2023).

This is one part of the list.

In this test the test system is S. aureus RN4220. Briefly: growth inhibition call (relative growth <= 0.2). To be noted: 50 µM.
Consider `Nc1ccc(S(=O)(=O)Nc2ccc(Cl)nn2)cc1`, for which the growth inhibition call was “inactive”.

Regarding `C/C=C/C1=CC(=O)[C@H](O)[C@H]1O`, the growth inhibition call was “inactive”. The entry for `C[C@@H](N)c1ccc(C(=O)Nc2ccnc3[nH]ccc23)cc1` is “inactive”. The entry for `CN1CCC(=C2c3ccccc3Sc3ccccc32)CC1.O=C(O)C=CC(=O)O` is “inactive”; for `O=C(N/N=C/[C@H](O)[C@@H](O)[C@H](O)[C@H](O)CO[C@H]1O[C@H](CO)[C@H](O)[C@H](O)[C@H]1O)c1ccccn1` it is “inactive”; for `Cc1noc(C)c1S(=O)(=O)N(C)C[C@@H]1Oc2ccc(NC(=O)Nc3ccc4c(c3)OCO4)cc2CC(=O)N([C@@H](C)CO)C[C@H]1C` it is “inactive”. The entry for `C[C@@H]1CN([C@@H](C)CO)C(=O)c2cccc(NS(C)(=O)=O)c2O[C@H]1CN(C)Cc1ccc(C(F)(F)F)cc1` is “inactive”. Regarding `O=C(C[C@H]1C=C[C@H](NC(=O)c2ccc(F)cc2)[C@H](CO)O1)NCc1ccncn1`, the growth inhibition call is “inactive”.

Take `Cc1noc(C)c1S(=O)(=O)Nc1ccc2c(c1)C(=O)N([C@H](C)CO)C[C@@H](C)[C@H](CN(C)C(=O)Nc1ccccc1)O2`: the growth inhibition call is “inactive”.

In the case of `C[C@@H]1CN([C@H](C)CO)S(=O)(=O)c2ccc(C#Cc3ccncc3)cc2O[C@H]1CN(C)C(=O)Nc1ccc2c(c1)OCO2`, the growth inhibition call was “inactive”. The entry for `C[C@@H]1CN([C@H](C)CO)C(=O)Cc2cc(NS(C)(=O)=O)ccc2O[C@H]1CN(C)S(=O)(=O)c1cn(C)cn1` is “inactive”; for `C[C@H]1CN([C@@H](C)CO)C(=O)c2cc(NC(=O)Nc3ccc(C(F)(F)F)cc3)ccc2O[C@H]1CN(C)Cc1ccncc1` it is “inactive”.

For `CC(C)C[C@H](NC(=O)[C@H](CCc1ccccc1)NC(=O)CN1CCOCC1)C(=O)N[C@@H](Cc1ccccc1)C(=O)N[C@@H](CC(C)C)C(=O)[C@@]1(C)CO1`, the growth inhibition call was “inactive”. For `C[C@@H]1CN([C@@H](C)CO)C(=O)Cc2cc(NC(=O)C3CCCCC3)ccc2O[C@@H]1CN(C)Cc1ccc(C(=O)Nc2ccccc2N)cc1`, the growth inhibition call is “inactive”. The entry for `C[C@@H]1CCCCO[C@@H](CN(C)CC2CCCCC2)[C@@H](C)CN([C@H](C)CO)C(=O)c2cc(NC(=O)Nc3cccc4ccccc34)ccc2O1` is “inactive”; for `CO[C@H]1CN(C)C(=O)c2cc(NC(=O)C3CCOCC3)ccc2OC[C@H](C)N(Cc2cccnc2)C[C@H]1C` it is “inactive”; for `C[C@H]1CN([C@@H](C)CO)S(=O)(=O)c2ccc(C#CC3CC3)cc2O[C@H]1CN(C)Cc1ccc(F)cc1` it is “inactive”.

As for `COc1ccc(S(=O)(=O)Nc2ccc3c(c2)CC(=O)N([C@@H](C)CO)C[C@H](C)[C@@H](CN(C)Cc2ccc(-c4ccccc4)cc2)O3)cc1`, the growth inhibition call is “inactive”. With `C[C@H]1CCCCO[C@H](CN(C)C(=O)c2ccccc2)[C@@H](C)CN([C@@H](C)CO)C(=O)c2cc(NS(=O)(=O)c3ccc(F)cc3)ccc2O1` the entry was “inactive”. With `COc1ccc(NC(=O)Nc2ccc3c(c2)C(=O)N([C@H](C)CO)C[C@H](C)[C@H](CN(C)C(=O)CCC(F)(F)F)OCCCC[C@@H](C)O3)cc1` the entry was “inactive”. With `CC(=O)SC1CC2=CC(=O)CCC2(C)C2CCC3(C)C(CCC34CCC(=O)O4)C12` (stereo not given) the entry was “inactive”.

With `C[C@H](CO)N1C[C@H](C)[C@H](CN(C)Cc2ccc(C(=O)Nc3ccccc3N)cc2)Oc2ccc(NC(=O)Nc3ccc(C(F)(F)F)cc3)cc2C1=O`, the growth inhibition call is “inactive”. With `C[C@@H]1CCCCO[C@H](CN(C)C(=O)C2CCCCC2)[C@@H](C)CN([C@H](C)CO)C(=O)c2cc(NC(=O)c3ccncc3)ccc2O1` the entry was “inactive”; with `C[C@@H]1CN([C@@H](C)CO)C(=O)Cc2cc(NC(=O)CCN3CCOCC3)ccc2O[C@H]1CN(C)Cc1ccc(C(=O)O)cc1`, “inactive”; with `C[C@@H]1CN([C@@H](C)CO)C(=O)Cc2cc(NC(=O)CCCCCC(=O)Nc3ccccc3N)ccc2O[C@@H]1CN(C)Cc1ccc(Cl)c(Cl)c1`, “inactive”. The entry for `COc1ccc(S(=O)(=O)N(C)C[C@@H]2Oc3ccc(N(C)C)cc3C(=O)N([C@@H](C)CO)C[C@H]2C)cc1` is “inactive”; for `Cc1noc(C)c1NC(=O)Nc1ccc2c(c1)C(=O)N([C@H](C)CO)C[C@@H](C)[C@@H](CN(C)C(=O)Nc1c(C)noc1C)OCCCC[C@@H](C)O2` it is “inactive”. With `Cc1ccc(S(=O)(=O)Nc2cccc3c2O[C@H](CN(C)Cc2ccc(C(F)(F)F)cc2)[C@@H](C)CN([C@H](C)CO)C3=O)cc1` the entry was “inactive”; with `O=C(C[C@H]1C=C[C@@H](NC(=O)CN2CCOCC2)[C@@H](CO)O1)NC1CCC1`, “inactive”; with `C[C@@H]1CCCCO[C@H](CN(C)S(=O)(=O)c2ccccc2)[C@H](C)CN([C@@H](C)CO)C(=O)c2cc(NC(=O)Nc3cccc4ccccc34)ccc2O1`, “inactive”. Consider `C[C@H]1CN([C@@H](C)CO)C(=O)c2cc(NC(=O)c3ccncc3)ccc2O[C@H]1CN(C)S(=O)(=O)c1ccccc1`, for which the growth inhibition call was “inactive”. With `Cc1noc(C)c1NC(=O)Nc1cccc2c1O[C@H](CN(C)S(=O)(=O)c1ccccc1)[C@@H](C)CN([C@H](C)CO)C2=O` the entry was “inactive”. With `CC(C)NC(=O)N(C)C[C@H]1Oc2ccc(NC(=O)NC3CCCCC3)cc2C(=O)N([C@@H](C)CO)C[C@H]1C` the entry was “inactive”. The entry for `COc1ccc(CN(C)C[C@@H]2Oc3c(NC(=O)Nc4ccc(C(F)(F)F)cc4)cccc3C(=O)N([C@@H](C)CO)C[C@H]2C)cc1` is “inactive”. Take `C[C@H](CO)N1C[C@H](C)[C@H](CN(C)Cc2ccc(C(F)(F)F)cc2)OCCCC[C@H](C)Oc2ccc(NC(=O)Nc3ccc4c(c3)OCO4)cc2C1=O`: the growth inhibition call is “inactive”. Turning to `COc1ccc(CN(C)C[C@@H]2OCCCC[C@H](C)Oc3ccc(NS(=O)(=O)c4cccs4)cc3C(=O)N([C@@H](C)CO)C[C@H]2C)cc1`, the growth inhibition call is “inactive”.

In the case of `CCN1C(=O)[C@H]2[C@H]3[C@H](O)[C@H](O)C/C(=N\OC[C@@H](O)COCc4ccco4)[C@@H]3CC[C@H]2C1=O`, the growth inhibition call is “inactive”. With `Cc1ccccc1S(=O)(=O)N1C[C@H](O)COC[C@@H]2O[C@@H](CC(=O)NCCc3ccccc3)CC[C@H]21` the entry was “inactive”.

For the compound `O=C(C[C@@H]1C=C[C@H](NC(=O)CN2CCOCC2)[C@H](CO)O1)NCc1cccc(F)c1`, the growth inhibition call was “inactive”. The entry for `CC(C)NC(=O)N[C@H]1C=C[C@@H](CC(=O)NCCN2CCCC2)O[C@@H]1CO` is “inactive”.
